# Test results reported in PubChem BioAssay (Tox21).
# Several values for one entry are separate records, joined by “and”; a condition that tells them apart may be missing. Equal values may be shown once. Activity calls are given as the source filed them. Unless noted, the call rests on the fitted dose curve; in most records, active means well fitted curve in the direction sought with a large enough effect in the repeat runs; inconclusive means weak or mixed curves; inactive means no such curve, though single readings can be large; an effect the other way counts as inactive or inconclusive.
# What was measured:
# [1] = target: Androgen receptor (Homo sapiens) (UniProt P10275); experiment: qHTS assay to identify small molecule agonists of the androgen receptor (AR) signaling pathway (AID 743036; active means well fitted activation curve with a large enough effect in the signal ratio in the repeat runs, with a control signal flat, not every such curve was filed as active; inconclusive means weak or mixed curves, or effect the other way; inactive means no such curve, though single readings can be large or run the other way; the % refers to the signal ratio); conditions: HEK293 AR-UAS-bla GripTite, beta-lactamase FRET ratio, 16 h; activation: at 62.4 µM (top of the series) unless noted
# Procedure, shortened: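 Beta-lactamase under UAS control, stably integrated in HEK293 GripTite cells, reports receptor activation. After 16 h compound treatment, cells received FRET substrate for 2 h at room temperature before fluorescence reading.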
# [2] = qHTS assay to identify small molecule antagonists of the androgen receptor (AR) signaling pathway using the MDA cell line - cell viability counter screen (AID 743041; further: nearly all actives have a fitted effect of over 45% in size; on viability change, negative = cytotoxic: on the % scale 0 is the no-effect control and ±100 the full control effect); conditions: MDA-kb2 viability, CellTiter-Fluor, 16 h, cells co-treated with R1881 androgen agonist; viability change, negative = cytotoxic: at 70.3 µM (top of the series) unless noted
# Procedure, shortened: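 Compound exposure lasted 16 h at 37C in MDA-kb2 AR-luc cells stimulated with R1881. Protease-based CellTiter-Fluor reagent was applied for the final 30 min and fluorescence measured.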
# [3] = qHTS assay to identify small molecule antagonists of the thyroid receptor (TR) signaling pathway - cell viability counter screen (AID 743064); conditions: GH3.TRE-Luc viability, CellTiter-Fluor, 24 h; activity change, negative = cytotoxic: at 70.3 µM (top of the series); further: nearly all actives have a fitted effect of over 50% in size; on activity change, negative = cytotoxic: on the % scale 0 is the no-effect control and ±100 the full control effect
# Procedure, shortened: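 Compounds were tested on GH3.TRE-Luc cells in the presence of T3 at 1 nM final. Following 23.5 h at 37 °C, cell viability was quantified by CellTiter-Fluor.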
# [4] = test system: thyroid hormone receptor (rat, GH3 cells); experiment: qHTS assay to identify small molecule agonists of the thyroid receptor (TR) signaling pathway (AID 743066; calls by dose curve; on activation: on the % scale 0 is the no-effect control and ±100 the full control effect); conditions: GH3.TRE-Luc cells, TR agonist luciferase, 24 h; activation: at 83.9 µM (top of the series) unless noted
# [5] = target: Estrogen receptor (Homo sapiens) (UniProt P03372); experiment: qHTS assay to identify small molecule antagonists of the estrogen receptor alpha (ER-alpha) signaling pathway (AID 743069; active means well fitted curve in the direction sought with a large enough effect in the signal ratio in the repeat runs, not every such curve was filed as active; inconclusive means weak or mixed curves, or effect the other way; inactive means no such curve, though single readings can be large or run the other way; the % refers to the signal ratio); conditions: HEK293 ER-alpha-UAS-bla, beta-lactamase ratio, antagonist mode; activity, negative = inhibition: at 69.4 µM (top of the series)
# Procedure, shortened: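 In this cell-based reporter format, GripTite HEK293 cells harbouring ER-alpha-UAS-bla were grown overnight with 2% charcoal-stripped FBS, dosed with DMSO-dissolved compounds, then challenged with 17beta-estradiol. After 18 hr at 37C, beta-lactamase activity was detected by FRET fluorescence.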
# [6] = qHTS assay to identify small molecule antagonists of the estrogen receptor alpha (ER-alpha) signaling pathway - cell viability counter screen (AID 743074; calls by dose curve; further: nearly all actives have a fitted effect of over 45% in size)
# [7] = target: Estrogen receptor (Homo sapiens) (UniProt P03372); experiment: qHTS assay to identify small molecule agonists of the estrogen receptor alpha (ER-alpha) signaling pathway using the BG1 cell line (AID 743079); conditions: BG1Luc4E2 cells, ERE-luciferase agonist, 22 h; activation: at 70.3 µM (top of the series) unless noted; further: nearly all actives have a fitted effect of over 20% in size
# [8] = qHTS assay to identify small molecule antagonists of the estrogen receptor alpha (ER-alpha) signaling pathway using the BG1 cell line - cell viability counter screen (AID 743081);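 further: compound given together with 17beta-estradiol as the ER stimulus; nearly all actives have a fitted effect of over 45% in size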
# [9] = target: Androgen receptor (Homo sapiens) (UniProt P10275); experiment: qHTS assay to identify small molecule antagonists of the androgen receptor (AR) signaling pathway (AID 743035; active means well fitted inhibition curve with a large enough effect in the signal ratio in the repeat runs, not every such curve was filed as active; inconclusive means weak or mixed curves, or effect the other way; inactive means no such curve, though single readings can be large or run the other way; the % refers to the signal ratio; on activity change, negative = inhibition: on the % scale 0 is the no-effect control and ±100 the full control effect); conditions: HEK293 AR-UAS-bla, R1881-stimulated, beta-lactamase FRET, 16 h; activity change, negative = inhibition: at 58.5 µM (top of the series) unless noted
# Procedure, shortened: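 In this cell-based reporter screen, compounds were tested in concentration series against R1881-activated HEK293 cells expressing beta-lactamase under UAS control; after 16 h at 37C, FRET substrate was added and fluorescence read 2 h later.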
# [10] = qHTS assay to identify small molecule antagonists of the estrogen receptor alpha (ER-alpha) signaling pathway using the BG1 cell line (AID 743080; calls by dose curve;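 further: BG1 cells stimulated with 17beta-estradiol alongside compound; nearly all actives have a fitted effect of over 25% in size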); conditions: BG1Luc4E2 ERE-luciferase antagonist mode, luminescence; activity change, negative = inhibition: at 70.3 µM (top of the series) unless noted
# Procedure, shortened: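 Endogenous full-length ER-alpha in BG1-Luc-4E2 cells drives a stably integrated 4×ERE luciferase gene; compounds were tested against 17beta-estradiol over 21.5 h, with luminescence and multiplexed viability fluorescence recorded.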
# Aromatase (Homo sapiens) = Aromatase (Homo sapiens) (UniProt P11511); experiment: qHTS assay to identify aromatase inhibitors (AID 743083); further: nearly all actives have a fitted effect of over 55% in size
# [11] = qHTS assay to identify aromatase inhibitors - cell viability counter screen (AID 743084);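 further: cells stimulated with testosterone during compound exposure; nearly all actives have a fitted effect of over 55% in size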
# [12] = qHTS assay to identify small molecule that activate the aryl hydrocarbon receptor (AhR) signaling pathway - cell viability counter screen (AID 743086); further: nearly all actives have a fitted effect of over 45% in size
# Procedure, shortened: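 HepG2-AhR-luc (HG2L7.5c1) cells, 4000/well, treated 24 h at 37 C with compound; viability measured as CellTiter-Fluor fluorescence after 30 min in the same wells as the luciferase read.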
# [13] = target: Peroxisome proliferator-activated receptor gamma (Homo sapiens) (UniProt P37231); experiment: qHTS assay to identify small molecule agonists of the peroxisome proliferator-activated receptor gamma (PPARg) signaling pathway (AID 743094; active means well fitted activation curve with a large enough effect in the signal ratio in the repeat runs, not every such curve was filed as active; inconclusive means weak or mixed curves, or effect the other way; inactive means no such curve, though single readings can be large or run the other way; the % refers to the signal ratio); conditions: HEK293H PPARg-UAS-bla, beta-lactamase FRET ratio, 17 h; activation: at 57 µM (top of the series) unless noted
# Procedure, shortened: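 Cell-based bla reporter, HEK293H background, PPARg-driven UAS. Pre-incubation 5 h, 37C, 5% CO2. Compound 17 h, 37C. Substrate 1 h RT; fluorescence.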
# [14] = target: Peroxisome proliferator-activated receptor gamma (Homo sapiens) (UniProt P37231); experiment: qHTS assay to identify small molecule antagonists of the peroxisome proliferator-activated receptor gamma (PPARg) signaling pathway (AID 743191; calls by dose curve; further: nearly all actives have a fitted effect of over 30% in size); conditions: HEK293H PPARg-UAS-bla, beta-lactamase ratio, antagonist, 17 h; ratio activity, negative = inhibition: at 62.6 µM (top of the series) unless noted
# Procedure, shortened: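 GeneBLAzer PPARg UAS-bla HEK293H cells, 5 h post-plating, exposed to compounds 17 h at 37C. LiveBLAzer B/G FRET substrate added for 1 h at room temperature; beta-lactamase reporter read by fluorescence intensity.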
# [15] = qHTS assay to identify small molecule antagonists of the thyroid receptor (TR) signaling pathway (AID 743065); further: nearly all actives have a fitted effect of over 55% in size
# Procedure, shortened: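 GH3.TRE-Luc rat pituitary cells (two TREs driving luciferase) were dosed with compound, then stimulated with 1 nM T3 (final) for 23.5 h at 37 C. ONE-Glo luminescence was the read-out, with CellTiter-Fluor fluorescence as the cytotoxicity counter-screen.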
# [16] = target: Aryl hydrocarbon receptor (Homo sapiens) (UniProt P35869); experiment: qHTS assay to identify small molecule that activate the aryl hydrocarbon receptor (AhR) signaling pathway (AID 743085); further: nearly all actives have a fitted effect of over 15% in size
# Procedure, shortened: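 24 h compound exposure, 37C, HepG2-derived HG2L7.5c1 cells with DRE-responsive luciferase. Readouts: fluorescence viability, then luminescence at room temperature after 30 min.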
# [17] = target: Androgen receptor (Homo sapiens) (UniProt P10275); experiment: qHTS assay to identify small molecule antagonists of the androgen receptor (AR) signaling pathway using the MDA cell line (AID 743042; further: nearly all actives have a fitted effect of over 55% in size)
# Procedure, shortened: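 MDA-kb2 breast carcinoma cells carrying MMTV-luciferase (AR/GR responsive) were co-treated with compounds and the agonist R1881 for 16 h at 37C. Inhibition read as ONE-Glo luminescence; CellTiter-Fluor fluorescence measured in parallel for cytotoxicity.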
# [18] = target: Estrogen receptor (Homo sapiens) (UniProt P03372); experiment: qHTS assay to identify small molecule agonists of the estrogen receptor alpha (ER-alpha) signaling pathway (AID 743075; calls by dose curve); conditions: HEK293 ER-alpha-UAS-bla, beta-lactamase FRET ratio, 18 h; activation: at 70.1 µM (top of the series)
# Potency means the concentration at half of the fitted maximal effect; tags describe the fitted curve by direction and shape or compound fluorescence and quenching.
# Chain of UniProt P03372 (P03372 whole entry, looked up): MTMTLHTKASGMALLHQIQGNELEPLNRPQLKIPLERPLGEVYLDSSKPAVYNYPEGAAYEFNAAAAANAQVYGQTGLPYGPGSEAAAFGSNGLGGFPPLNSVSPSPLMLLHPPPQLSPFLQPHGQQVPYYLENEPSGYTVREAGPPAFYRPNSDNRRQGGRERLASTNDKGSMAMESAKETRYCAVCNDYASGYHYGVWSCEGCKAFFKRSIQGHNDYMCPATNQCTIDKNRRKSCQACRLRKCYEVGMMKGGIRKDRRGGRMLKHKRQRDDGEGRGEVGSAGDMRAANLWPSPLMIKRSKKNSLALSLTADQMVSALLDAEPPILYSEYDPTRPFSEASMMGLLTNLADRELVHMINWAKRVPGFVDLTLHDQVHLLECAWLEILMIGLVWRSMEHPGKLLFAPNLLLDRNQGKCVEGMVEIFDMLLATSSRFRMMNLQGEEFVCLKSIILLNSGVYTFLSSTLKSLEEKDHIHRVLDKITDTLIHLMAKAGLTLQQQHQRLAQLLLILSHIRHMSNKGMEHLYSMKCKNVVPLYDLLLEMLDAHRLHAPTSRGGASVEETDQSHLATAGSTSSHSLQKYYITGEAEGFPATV
# Chain of UniProt P10275 (P10275 whole entry, looked up): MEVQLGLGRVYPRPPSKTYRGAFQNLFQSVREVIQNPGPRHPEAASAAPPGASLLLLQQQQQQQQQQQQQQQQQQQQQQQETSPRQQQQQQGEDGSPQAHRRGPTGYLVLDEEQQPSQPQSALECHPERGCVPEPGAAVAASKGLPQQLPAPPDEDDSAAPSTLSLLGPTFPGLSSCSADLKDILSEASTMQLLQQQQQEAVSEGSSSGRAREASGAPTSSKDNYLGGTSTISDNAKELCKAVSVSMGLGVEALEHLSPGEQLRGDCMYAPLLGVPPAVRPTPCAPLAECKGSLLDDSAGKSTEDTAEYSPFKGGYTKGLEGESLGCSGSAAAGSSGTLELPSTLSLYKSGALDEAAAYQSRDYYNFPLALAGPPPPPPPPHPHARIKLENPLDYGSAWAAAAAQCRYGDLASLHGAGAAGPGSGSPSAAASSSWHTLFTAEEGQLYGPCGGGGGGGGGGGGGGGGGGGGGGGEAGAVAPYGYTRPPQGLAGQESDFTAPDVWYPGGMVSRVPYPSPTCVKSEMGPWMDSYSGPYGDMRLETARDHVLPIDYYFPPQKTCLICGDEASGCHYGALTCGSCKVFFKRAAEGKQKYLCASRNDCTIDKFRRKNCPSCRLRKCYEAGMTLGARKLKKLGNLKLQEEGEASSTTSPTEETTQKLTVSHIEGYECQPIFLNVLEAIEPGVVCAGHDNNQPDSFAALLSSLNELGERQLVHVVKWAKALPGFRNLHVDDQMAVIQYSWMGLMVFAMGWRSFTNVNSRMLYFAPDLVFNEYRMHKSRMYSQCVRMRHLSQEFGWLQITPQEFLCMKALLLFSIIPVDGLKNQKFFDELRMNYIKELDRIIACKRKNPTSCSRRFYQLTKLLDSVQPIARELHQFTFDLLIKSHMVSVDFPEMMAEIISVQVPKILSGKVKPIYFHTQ
# Chain of UniProt P37231 (P37231 whole entry, looked up): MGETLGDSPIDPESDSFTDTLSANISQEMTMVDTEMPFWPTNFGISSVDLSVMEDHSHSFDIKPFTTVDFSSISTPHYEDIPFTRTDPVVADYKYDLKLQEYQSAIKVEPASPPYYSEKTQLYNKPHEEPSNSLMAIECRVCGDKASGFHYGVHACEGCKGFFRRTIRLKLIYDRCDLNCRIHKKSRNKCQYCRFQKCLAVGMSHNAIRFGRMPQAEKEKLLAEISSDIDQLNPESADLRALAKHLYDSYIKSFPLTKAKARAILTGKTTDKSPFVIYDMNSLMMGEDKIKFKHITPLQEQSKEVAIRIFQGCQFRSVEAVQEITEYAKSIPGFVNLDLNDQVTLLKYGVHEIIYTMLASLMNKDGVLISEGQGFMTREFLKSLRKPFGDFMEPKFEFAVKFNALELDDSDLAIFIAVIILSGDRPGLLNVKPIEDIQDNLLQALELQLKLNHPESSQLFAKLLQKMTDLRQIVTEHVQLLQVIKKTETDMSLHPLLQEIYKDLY
# Chain of UniProt P35869 (P35869 whole entry, looked up): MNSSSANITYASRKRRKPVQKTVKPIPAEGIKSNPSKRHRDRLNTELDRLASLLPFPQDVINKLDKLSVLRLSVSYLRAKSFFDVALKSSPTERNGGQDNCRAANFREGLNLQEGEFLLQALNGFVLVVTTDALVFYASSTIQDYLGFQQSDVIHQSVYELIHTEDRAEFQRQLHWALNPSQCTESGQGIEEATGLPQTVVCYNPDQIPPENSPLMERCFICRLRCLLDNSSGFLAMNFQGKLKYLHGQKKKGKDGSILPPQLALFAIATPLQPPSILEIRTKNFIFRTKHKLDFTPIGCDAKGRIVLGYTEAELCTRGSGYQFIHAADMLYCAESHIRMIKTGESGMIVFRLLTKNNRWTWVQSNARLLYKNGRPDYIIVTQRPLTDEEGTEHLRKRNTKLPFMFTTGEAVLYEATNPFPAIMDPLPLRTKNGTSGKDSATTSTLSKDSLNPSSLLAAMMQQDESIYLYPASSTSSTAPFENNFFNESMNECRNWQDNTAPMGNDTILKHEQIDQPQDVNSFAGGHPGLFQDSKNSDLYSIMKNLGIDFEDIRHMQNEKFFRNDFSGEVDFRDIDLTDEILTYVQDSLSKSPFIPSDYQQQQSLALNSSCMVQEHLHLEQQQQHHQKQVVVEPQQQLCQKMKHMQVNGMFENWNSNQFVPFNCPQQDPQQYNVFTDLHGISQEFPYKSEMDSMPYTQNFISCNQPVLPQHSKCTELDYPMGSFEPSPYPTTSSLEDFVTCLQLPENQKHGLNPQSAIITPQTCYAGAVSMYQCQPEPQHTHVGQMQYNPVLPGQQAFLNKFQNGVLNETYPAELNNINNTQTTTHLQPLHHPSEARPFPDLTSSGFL
# Chain of UniProt P11511 (P11511 whole entry, looked up): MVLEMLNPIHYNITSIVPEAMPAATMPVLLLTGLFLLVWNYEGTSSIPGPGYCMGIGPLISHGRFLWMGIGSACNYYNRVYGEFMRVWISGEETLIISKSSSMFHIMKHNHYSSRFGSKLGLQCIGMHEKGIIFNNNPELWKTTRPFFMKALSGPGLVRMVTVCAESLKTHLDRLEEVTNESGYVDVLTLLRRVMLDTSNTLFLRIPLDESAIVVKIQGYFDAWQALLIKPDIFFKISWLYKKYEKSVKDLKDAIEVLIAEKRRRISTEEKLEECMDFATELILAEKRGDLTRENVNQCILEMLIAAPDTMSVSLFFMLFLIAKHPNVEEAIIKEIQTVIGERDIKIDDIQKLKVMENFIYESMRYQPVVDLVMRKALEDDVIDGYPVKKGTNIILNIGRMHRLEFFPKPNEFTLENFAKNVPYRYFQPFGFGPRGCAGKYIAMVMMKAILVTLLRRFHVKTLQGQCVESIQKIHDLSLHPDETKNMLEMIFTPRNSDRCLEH
structure (smiles),measurement,setting,value
CN(C)C(=S)SSC(=S)N(C)C,Potency,[1],"inconclusive: 4.77 µM [activator, partial curve] and inconclusive: 8.59 µM [activator] and inconclusive: 9.77 µM [activator, partial curve, poor fit]"
same,Potency,[2],active: 393 nM and active: 269 nM and active: 154 nM
same,Potency,[3],active: 133 nM and active: 9.55 µM and active: 21.7 nM
same,Potency,[4],inconclusive: 0.0473 µM [inhibitor]
same,activation,[4],inconclusive: -9.63% [phenotype inactive]
same,Potency,[5],"inconclusive: 26.8 µM [fluorescent, single point] and inconclusive: 1.1 µM [activator, full curve]"
same,Potency,[6],"inconclusive: 6.01 µM [cytotoxic, partial curve] and inconclusive: 12.1 µM [cytotoxic, full curve, poor fit]"
same,Potency,[7],"inconclusive: 11.9 µM [inhibitor, partial curve] and inconclusive: 2.14 µM [inhibitor, full curve] and inconclusive: 12.2 µM [inhibitor, full curve]"
same,Potency,[8],"inconclusive: 67.6 µM [cytotoxic, partial curve, poor fit]"
Fc1ccc(C(OCCN2CCN(CCCc3ccccc3)CC2)c2ccc(F)cc2)cc1,Potency,[9],active: 15.1 µM
same,activation,[4],inconclusive: -8.53% [phenotype inactive]
same,Potency,[5],inconclusive: 9.52 µM [full curve]
same,Potency,[6],active: 15.1 µM
same,Potency,[7],"inconclusive: 21.1 µM [inhibitor, partial curve]"
same,Potency,[10],"inconclusive: 23.7 µM [falling, partial curve]"
same,Potency,[8],active: 21.1 µM
same,Potency,Aromatase (Homo sapiens),active: 18.8 µM
same,Potency,[11],active: 26.6 µM
same,Potency,[12],inconclusive: 23.7 µM
same,Potency,[13],inconclusive: 10.7 µM
same,Potency,[14],"inconclusive: 0.531 µM [rising, partial curve, poor fit]"
OCCN(CCO)CCO,Potency,[2],inactive
same,"activity change, negative = cytotoxic",[3],inconclusive: 37.3%
CNC(C)Cc1ccc2c(c1)OCO2 (centres undefined),Potency,[9],inactive
same,Potency,[8],"inconclusive: 33.6 µM [cytotoxic, partial curve, poor fit]"
S=C=NCCc1ccccc1,Potency,[1],inconclusive: 55.1 µM [activator]
same,Potency,[3],inconclusive: 68.7 µM [cytotoxic]
same,Potency,[15],inconclusive: 68.7 µM [inhibitor]
same,Potency,[7],active: 54.6 µM
same,Potency,[10],"inconclusive: 68.7 µM [rising, partial curve]"
same,Potency,[11],"inconclusive: 27.4 µM [rising, single point]"
same,Potency,[16],active: 54.6 µM
same,Potency,[14],inactive
CC(=O)[O][Hg][c]1ccccc1,Potency,[2],active: 5.31 µM and active: 3.82 µM and active: 3.06 µM
same,Potency,[17],active: 2.98 µM and active: 1.92 µM and active: 2.17 µM
same,activation,[4],inconclusive: -8.91% [phenotype inactive] and inconclusive: -9.25% [phenotype inactive]
same,Potency,[6],active: 5.35 µM and active: 2.43 µM and active: 5.49 µM
same,Potency,[18],active: 26.8 µM [inconclusive] and active: 34.4 µM [inconclusive] and active: 1.1 µM [fluorescent]
same,Potency,[7],"inconclusive: 2.98 µM [inhibitor, full curve] and inconclusive: 1.92 µM [inhibitor, full curve] and inconclusive: 6.86 µM [inhibitor, partial curve]"
same,Potency,[10],"inconclusive: 2.37 µM [falling, full curve] and inconclusive: 3.04 µM [falling, full curve] and inconclusive: 3.86 µM [falling, full curve]"
same,Potency,[8],active: 2.98 µM and active: 3.04 µM and active: 4.33 µM
CC(C)=CCOc1c2occc2cc2ccc(=O)oc12,Potency,[9],inactive
same,Potency,[8],"inconclusive: 13.3 µM [cytotoxic, single point]"
same,Potency,[16],active: 3.76 µM
CC(C)(c1ccc(OCC2CO2)cc1)c1ccc(OCC2CO2)cc1 (centres undefined),Potency,[1],inactive
same,Potency,[3],"inconclusive: 69.5 µM [cytotoxic, single point] and inconclusive: 68.6 µM [cytotoxic, single point]"
same,Potency,[5],inconclusive: 55.7 µM [single point]
same,Potency,[13],inconclusive: 55.7 µM
same,activation,[13],inconclusive: -17.2%
COP(=O)(OC)O/C(=C\Cl)c1cc(Cl)c(Cl)cc1Cl,Potency,[9],active: 21.9 µM
same,Potency,[3],"inconclusive: 48.6 µM [cytotoxic, partial curve]"
same,Potency,[5],active: 24.5 µM [inconclusive]
same,Potency,[6],"inconclusive: 6.92 µM [cytotoxic, full curve]"
same,Potency,[18],inconclusive: 61.6 µM
same,Potency,[7],"inconclusive: 68.6 µM [inhibitor, partial curve, poor fit]"
same,Potency,[10],active: 68.6 µM
same,Potency,[11],"inconclusive: 68.6 µM [cytotoxic, partial curve, poor fit]"
same,Potency,[13],inconclusive: 11 µM [inhibitor]
same,Potency,[14],active: 4.9 µM
